# From the supplement of paper PMC8728848
# This is one part of the list.
# B1: ABA (Agaricus bisporus), Q00022 (protein)
# chain: MTYTISIRVYQTTPKGFFRPVERTNWKYANGGTWDEVRGEYVLTMGGSGTSGSLRFVSSDTDESFVATFGVHNYKRWCDIVTNLTNEQTALVINQEYYGVPIRDQARENQLTSYNVANAKGRRFAIEYTVTEGDNLKANLIIG
# How the values were obtained:
# Assay in all cases: glycan array binding signal (z-score within array); higher = stronger binding
# Conditions in all cases: glycan notation: IUPAC condensed, linker removed
# [1] = target: Fuc(a1-3)[Gal(b1-4)]GlcNAc(b1-6)[Gal(b1-3)GlcNAc(b1-3)]Gal(b1-4)Glc
# How it was run: (§1)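 The binding signal is a Z-score computed within each array and averaged over linkers. Arrays of the same protein sequence at different concentrations or buffers were also averaged together. Data originate from 3228 arrays in the Consortium for Functional Glycomics database, kept only where the protein sequence was available.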
# [2] = target: Fuc(a1-3)[Gal(b1-4)]GlcNAc6S
# How it was run: as §1
# [3] = target: Fuc(a1-3)[Gal3S(b1-4)]Glc
# How it was run: as §1
# [4] = target: Fuc(a1-3)[Gal3S(b1-4)]GlcNAc
# How it was run: as §1
# [5] = target: Fuc(a1-3)[Gal3S(b1-4)]GlcNAc6S
# How it was run: as §1
# [6] = target: Fuc(a1-3)[GalNAc(b1-4)]GlcNAc
# How it was run: as §1
# [7] = target: Fuc(a1-3)[GalNAc(b1-4)]GlcNAc6S
# How it was run: as §1
# Fuc(a1-4)GlcNAc = target: Fuc(a1-4)GlcNAc
# How it was run: as §1
# Fuc(b1-3)GlcNAc = target: Fuc(b1-3)GlcNAc
# How it was run: as §1
# Gal(a1-2)Gal = target: Gal(a1-2)Gal
# How it was run: as §1
# Gal(a1-3)Gal = target: Gal(a1-3)Gal
# How it was run: as §1
# Gal(a1-3)Gal(b1-3)GlcNAc = target: Gal(a1-3)Gal(b1-3)GlcNAc
# How it was run: as §1
# [8] = target: Gal(a1-3)Gal(b1-3)GlcNAc(b1-2)Man
# How it was run: as §1
# [9] = target: Gal(a1-3)Gal(b1-3)GlcNAc(b1-2)Man(a1-3)[Gal(a1-3)Gal(b1-3)GlcNAc(b1-2)Man(a1-6)]Man(b1-4)GlcNAc(b1-4)GlcNAc
# How it was run: as §1
# [10] = target: Gal(a1-3)Gal(b1-3)GlcNAc(b1-3)GalNAc
# How it was run: as §1
# [11] = target: Gal(a1-3)Gal(b1-3)GlcNAc(b1-6)GalNAc
# How it was run: as §1
# [12] = target: Gal(a1-3)Gal(b1-3)[Fuc(a1-4)]GlcNAc(b1-2)Man(a1-3)[Gal(a1-3)Gal(b1-3)[Fuc(a1-4)]GlcNAc(b1-2)Man(a1-6)]Man(b1-4)GlcNAc(b1-4)GlcNAc
# How it was run: as §1
# Gal(a1-3)Gal(b1-4)Glc = target: Gal(a1-3)Gal(b1-4)Glc
# How it was run: as §1
# Gal(a1-3)Gal(b1-4)GlcNAc = target: Gal(a1-3)Gal(b1-4)GlcNAc
# How it was run: as §1
# [13] = target: Gal(a1-3)Gal(b1-4)GlcNAc(b1-2)Man
# How it was run: as §1
# [14] = target: Gal(a1-3)Gal(b1-4)GlcNAc(b1-2)Man(a1-3)[Gal(a1-3)Gal(b1-4)GlcNAc(b1-2)Man(a1-6)]Man(b1-4)GlcNAc(b1-4)GlcNAc
# How it was run: as §1
# [15] = target: Gal(a1-3)Gal(b1-4)GlcNAc(b1-3)GalNAc
# How it was run: as §1
# [16] = target: Gal(a1-3)Gal(b1-4)GlcNAc(b1-6)GalNAc
# How it was run: as §1
# [17] = target: Gal(a1-3)Gal(b1-4)[Fuc(a1-3)]GlcNAc
# How it was run: as §1
# [18] = target: Gal(a1-3)Gal(b1-4)[Fuc(a1-3)]GlcNAc(b1-2)Man(a1-3)[Gal(a1-3)Gal(b1-4)[Fuc(a1-3)]GlcNAc(b1-2)Man(a1-6)]Man(b1-4)GlcNAc(b1-4)GlcNAc
# How it was run: as §1
# Gal(a1-3)GalNAc = target: Gal(a1-3)GalNAc
# How it was run: as §1
# [19] = target: Gal(a1-3)[Gal(a1-4)]Gal(b1-4)GlcNAc
# How it was run: as §1
# [20] = target: Gal(a1-4)Gal(b1-3)GlcNAc(b1-2)Man(a1-3)[Gal(a1-4)Gal(b1-3)GlcNAc(b1-2)Man(a1-6)]Man(b1-4)GlcNAc(b1-4)GlcNAc
# How it was run: as §1
# Gal(a1-4)Gal(b1-4)Glc = target: Gal(a1-4)Gal(b1-4)Glc
# How it was run: as §1
# Gal(a1-4)Gal(b1-4)GlcNAc = target: Gal(a1-4)Gal(b1-4)GlcNAc
# How it was run: as §1
# [21] = target: Gal(a1-4)Gal(b1-4)GlcNAc(b1-2)Man(a1-3)[Gal(a1-4)Gal(b1-4)GlcNAc(b1-2)Man(a1-6)]Man(b1-4)GlcNAc(b1-4)GlcNAc
# How it was run: as §1
# [22] = target: Gal(a1-4)Gal(b1-4)GlcNAc(b1-3)Gal(b1-4)Glc
# How it was run: as §1
# Gal(a1-4)GlcNAc = target: Gal(a1-4)GlcNAc
# How it was run: as §1
# Gal(a1-6)Glc = target: Gal(a1-6)Glc
# How it was run: as §1
# Gal(b1-2)Gal = target: Gal(b1-2)Gal
# How it was run: as §1
# Gal(b1-3)Gal = target: Gal(b1-3)Gal
# How it was run: as §1
# Gal(b1-3)Gal(b1-4)GlcNAc = target: Gal(b1-3)Gal(b1-4)GlcNAc
# How it was run: as §1
# Gal(b1-3)GalNAc = target: Gal(b1-3)GalNAc
# How it was run: as §1
# [23] = target: Gal(b1-3)GalNAc(a1-3)[Fuc(a1-2)]Gal(b1-4)Glc
# How it was run: as §1
# [24] = target: Gal(b1-3)GalNAc(a1-3)[Fuc(a1-2)]Gal(b1-4)GlcNAc
# How it was run: as §1
# Gal(b1-3)GalNAc(b1-3)Gal = target: Gal(b1-3)GalNAc(b1-3)Gal
# How it was run: as §1
# [25] = target: Gal(b1-3)GalNAc(b1-3)Gal(a1-4)Gal(b1-4)Glc
# How it was run: as §1
# [26] = target: Gal(b1-3)GalNAc(b1-4)Gal(b1-4)Glc
# How it was run: as §1
# [27] = target: Gal(b1-3)GalNAc(b1-4)[Neu5Ac(a2-3)]Gal(b1-4)Glc
# How it was run: as §1
# Gal(b1-3)GlcNAc = target: Gal(b1-3)GlcNAc
# How it was run: as §1
binder,measurement,setting,value
B1,glycan array binding signal (z-score),[1],-0.257
same,glycan array binding signal (z-score),[2],-0.232
same,glycan array binding signal (z-score),[3],-0.246
same,glycan array binding signal (z-score),[4],0.098
same,glycan array binding signal (z-score),[5],-0.286
same,glycan array binding signal (z-score),[6],-0.206
same,glycan array binding signal (z-score),[7],-0.295
same,glycan array binding signal (z-score),Fuc(a1-4)GlcNAc,-0.283
same,glycan array binding signal (z-score),Fuc(b1-3)GlcNAc,-0.235
same,glycan array binding signal (z-score),Gal(a1-2)Gal,-0.211
same,glycan array binding signal (z-score),Gal(a1-3)Gal,-0.183
same,glycan array binding signal (z-score),Gal(a1-3)Gal(b1-3)GlcNAc,-0.192
same,glycan array binding signal (z-score),[8],-0.236
same,glycan array binding signal (z-score),[9],-0.046
same,glycan array binding signal (z-score),[10],-0.189
same,glycan array binding signal (z-score),[11],-0.206
same,glycan array binding signal (z-score),[12],0.344
same,glycan array binding signal (z-score),Gal(a1-3)Gal(b1-4)Glc,-0.202
same,glycan array binding signal (z-score),Gal(a1-3)Gal(b1-4)GlcNAc,-0.212
same,glycan array binding signal (z-score),[13],-0.227
same,glycan array binding signal (z-score),[14],-0.189
same,glycan array binding signal (z-score),[15],-0.227
same,glycan array binding signal (z-score),[16],-0.239
same,glycan array binding signal (z-score),[17],-0.206
same,glycan array binding signal (z-score),[18],-0.213
same,glycan array binding signal (z-score),Gal(a1-3)GalNAc,-0.118
same,glycan array binding signal (z-score),[19],-0.28
same,glycan array binding signal (z-score),[20],-0.216
same,glycan array binding signal (z-score),Gal(a1-4)Gal(b1-4)Glc,-0.198
same,glycan array binding signal (z-score),Gal(a1-4)Gal(b1-4)GlcNAc,-0.199
same,glycan array binding signal (z-score),[21],-0.263
same,glycan array binding signal (z-score),[22],-0.249
same,glycan array binding signal (z-score),Gal(a1-4)GlcNAc,-0.216
same,glycan array binding signal (z-score),Gal(a1-6)Glc,-0.167
same,glycan array binding signal (z-score),Gal(b1-2)Gal,-0.096
same,glycan array binding signal (z-score),Gal(b1-3)Gal,-0.188
same,glycan array binding signal (z-score),Gal(b1-3)Gal(b1-4)GlcNAc,-0.268
same,glycan array binding signal (z-score),Gal(b1-3)GalNAc,0.383
same,glycan array binding signal (z-score),[23],3.56
same,glycan array binding signal (z-score),[24],3.27
same,glycan array binding signal (z-score),Gal(b1-3)GalNAc(b1-3)Gal,-0.28
same,glycan array binding signal (z-score),[25],-0.187
same,glycan array binding signal (z-score),[26],-0.236
same,glycan array binding signal (z-score),[27],-0.251
same,glycan array binding signal (z-score),Gal(b1-3)GlcNAc,-0.243
